Assay results taken from patent publication US11000038B2, “Pyridone compounds and agricultural and horticultural fungicides containing the same as active ingredients” (priority 2017, dated 2021).

What was measured:
[1] = tested on: cabbage Alternaria sooty spot fungi (Alternaia brassicicola); assay: Test Example C: cabbage Alternaria sooty spot, spray treatment of cabbage plants; format: in vivo; conditions: for Test C control value class (cabbage Alternaria sooty spot): spray treatment of cabbage plants, control value=100{1-(n/3)}; for Test C control value: cabbage Alternaria sooty spot, spray treatment
Description: [Test Example C] Cabbage Alternaria Sooty Spot
Test plants (cabbage variety: Shikidori) were cultivated until the cotyledons extended after the sowing of seeds.
<Control Value> Control value=100{1−(n/3)}

[2] = tested on: wheat brown rust fungi (Puccinia recondita); assay: Test Example E: wheat brown rust, spray treatment of wheat plants; format: in vivo; conditions: spray treatment of wheat plants; control value=100{1-(n/3)}
[3] = tested on: gray mold fungi (Botrytis cinerea); assay: Test Example B: tomato gray mold, spray treatment of tomato plants; conditions: for Test B control value class (tomato gray mold): spray treatment of tomato plants, control value=100{1-(n/3)}; for Test B control value: tomato gray mold, spray treatment
[4] = tested on: grape downy mildew fungus (Plasmopara viticola); assay: Test Example G: grape downy mildew, spray treatment of grape plants; conditions: 250 ppm spray; for Test G control value class (grape downy mildew): 2.5 ml/pot, grape Neomuscat, 7 to 10 days from inoculation; for Test G control value: grape downy mildew, 7 to 10 days after inoculation
[5] = tested on: barley powdery mildew fungi (Blumeria graminis f. sp. hordei); assay: Test Example D: barley powdery mildew, spray treatment of barley plants; conditions: for Test D control value class (barley powdery mildew): spray treatment of barley plants, control value=100{1-(n/3)}; for Test D control value: barley powdery mildew, spray treatment

Row | SMILES | Test C control value class (cabbage Alternaria sooty spot) [1] | Test E control value class (wheat brown rust) [2] | Test B control value class (tomato gray mold) [3] | Test G control value class (grape downy mildew) [4] | Test D control value class (barley powdery mildew) [5] | Test C control value [1] | Test B control value [3] | Test G control value [4] | Test D control value [5]
1 | CCCn1cc(Cl)c(=O)c(Cl)c1-c1c(F)cc(F)cc1F [Compound 6] | H (H shows the control value of more than 50%) | H (H shows the control value of more than 50%) | H (H shows the control value of more than 50%) | L (L shows the control value of 50% or less) | L (L shows the control value of 50% or less) |  |  |  | 
2 | CCCn1cc(Cl)c(=O)c(Br)c1-c1c(F)cc(F)cc1F [Compound 7] | H (H shows the control value of more than 50%) | H (H shows the control value of more than 50%) | H (H shows the control value of more than 50%) | H (H shows the control value of more than 50%) | L (L shows the control value of 50% or less) |  |  |  | 
3 | O=c1c(Br)cn(-c2ccccc2)c(-c2c(F)cc(F)cc2F)c1Br [Compound 8] | H (H shows the control value of more than 50%) | H (H shows the control value of more than 50%) | H (H shows the control value of more than 50%) | L (L shows the control value of 50% or less) | L (L shows the control value of 50% or less) |  |  |  | 
4 | CC(C)n1cc(Cl)c(=O)c(Br)c1-c1c(F)cc(F)cc1F [Compound 11] | H (H shows the control value of more than 50%) | H (H shows the control value of more than 50%) | L (L shows the control value of 50% or less) | L (L shows the control value of 50% or less) | H (H shows the control value of more than 50%) |  |  |  | 
5 | CC(C)n1cc(Br)c(=O)c(Br)c1-c1c(F)cc(F)cc1F [Compound 12] | H (H shows the control value of more than 50%) | H (H shows the control value of more than 50%) | H (H shows the control value of more than 50%) | L (L shows the control value of 50% or less) | L (L shows the control value of 50% or less) |  |  |  | 
6 | CC(C)n1cc(Br)c(=O)c(Cl)c1-c1c(F)cc(F)cc1F [Compound 13] | H (H shows the control value of more than 50%) | H (H shows the control value of more than 50%) | L (L shows the control value of 50% or less) | H (H shows the control value of more than 50%) | H (H shows the control value of more than 50%) |  |  |  | 
7 | O=c1c(Cl)cn(-c2ccccc2)c(-c2c(F)cc(F)cc2F)c1Cl [Compound 14] | H (H shows the control value of more than 50%) | H (H shows the control value of more than 50%) | H (H shows the control value of more than 50%) | H (H shows the control value of more than 50%) | H (H shows the control value of more than 50%) |  |  |  | 
8 | COc1cc(F)c(-c2c(Cl)c(=O)c(Cl)cn2-c2ccccc2)c(F)c1 [Compound 16] | H (H shows the control value of more than 50%) | H (H shows the control value of more than 50%) | H (H shows the control value of more than 50%) | L (L shows the control value of 50% or less) | L (L shows the control value of 50% or less) |  |  |  | 
9 | C#CCOc1ccc(C)c(-n2cc(Br)c(=O)c(Cl)c2-c2c(F)cccc2F)c1 [Compound 429] |  |  |  |  |  | H (H shows the control value of more than 50%) | H (H shows the control value of more than 50%) | H (H shows the control value of more than 50%) | L (L shows the control value of 50% or less)
10 | COCCOc1ccc(C)c(-n2cc(Br)c(=O)c(Cl)c2-c2c(F)cccc2F)c1 [Compound 431] |  |  |  |  |  | L (L shows the control value of 50% or less) | H (H shows the control value of more than 50%) | L (L shows the control value of 50% or less) | L (L shows the control value of 50% or less)
11 | O=c1c(Br)cn(-c2ccccc2)c(-c2ccc(F)cc2F)c1Cl [Compound 469] |  |  |  |  |  | H (H shows the control value of more than 50%) | H (H shows the control value of more than 50%) | L (L shows the control value of 50% or less) | L (L shows the control value of 50% or less)
12 | Cc1ccccc1-n1cc(C)c(=O)c(C)c1-c1c(F)cccc1F [Compound 500] |  |  |  |  |  | H (H shows the control value of more than 50%) | H (H shows the control value of more than 50%) | L (L shows the control value of 50% or less) | H (H shows the control value of more than 50%)
13 | CCc1c(-c2c(F)cc(F)cc2F)n(-c2cccc(OC)c2C)cc(Br)c1=O [Compound 513] |  |  |  |  |  | H (H shows the control value of more than 50%) | H (H shows the control value of more than 50%) | H (H shows the control value of more than 50%) | H (H shows the control value of more than 50%)
14 | CCc1c(-c2ccc(F)cc2Cl)n(-c2ccccc2)cc(Br)c1=O [Compound 621] |  |  |  |  |  | H (H shows the control value of more than 50%) | H (H shows the control value of more than 50%) | L (L shows the control value of 50% or less) | H (H shows the control value of more than 50%)
